For five molecules, binding results are on record in PMC2785803.

Chains of the proteins cited; added tags and fusions are not shown. Lines headed by an entry give the natural chain unless they say otherwise; changes in a name come on top. A line that says so, or that is headed by a name, gives the form on record, which may keep a tag or linker.
UniProt P45481: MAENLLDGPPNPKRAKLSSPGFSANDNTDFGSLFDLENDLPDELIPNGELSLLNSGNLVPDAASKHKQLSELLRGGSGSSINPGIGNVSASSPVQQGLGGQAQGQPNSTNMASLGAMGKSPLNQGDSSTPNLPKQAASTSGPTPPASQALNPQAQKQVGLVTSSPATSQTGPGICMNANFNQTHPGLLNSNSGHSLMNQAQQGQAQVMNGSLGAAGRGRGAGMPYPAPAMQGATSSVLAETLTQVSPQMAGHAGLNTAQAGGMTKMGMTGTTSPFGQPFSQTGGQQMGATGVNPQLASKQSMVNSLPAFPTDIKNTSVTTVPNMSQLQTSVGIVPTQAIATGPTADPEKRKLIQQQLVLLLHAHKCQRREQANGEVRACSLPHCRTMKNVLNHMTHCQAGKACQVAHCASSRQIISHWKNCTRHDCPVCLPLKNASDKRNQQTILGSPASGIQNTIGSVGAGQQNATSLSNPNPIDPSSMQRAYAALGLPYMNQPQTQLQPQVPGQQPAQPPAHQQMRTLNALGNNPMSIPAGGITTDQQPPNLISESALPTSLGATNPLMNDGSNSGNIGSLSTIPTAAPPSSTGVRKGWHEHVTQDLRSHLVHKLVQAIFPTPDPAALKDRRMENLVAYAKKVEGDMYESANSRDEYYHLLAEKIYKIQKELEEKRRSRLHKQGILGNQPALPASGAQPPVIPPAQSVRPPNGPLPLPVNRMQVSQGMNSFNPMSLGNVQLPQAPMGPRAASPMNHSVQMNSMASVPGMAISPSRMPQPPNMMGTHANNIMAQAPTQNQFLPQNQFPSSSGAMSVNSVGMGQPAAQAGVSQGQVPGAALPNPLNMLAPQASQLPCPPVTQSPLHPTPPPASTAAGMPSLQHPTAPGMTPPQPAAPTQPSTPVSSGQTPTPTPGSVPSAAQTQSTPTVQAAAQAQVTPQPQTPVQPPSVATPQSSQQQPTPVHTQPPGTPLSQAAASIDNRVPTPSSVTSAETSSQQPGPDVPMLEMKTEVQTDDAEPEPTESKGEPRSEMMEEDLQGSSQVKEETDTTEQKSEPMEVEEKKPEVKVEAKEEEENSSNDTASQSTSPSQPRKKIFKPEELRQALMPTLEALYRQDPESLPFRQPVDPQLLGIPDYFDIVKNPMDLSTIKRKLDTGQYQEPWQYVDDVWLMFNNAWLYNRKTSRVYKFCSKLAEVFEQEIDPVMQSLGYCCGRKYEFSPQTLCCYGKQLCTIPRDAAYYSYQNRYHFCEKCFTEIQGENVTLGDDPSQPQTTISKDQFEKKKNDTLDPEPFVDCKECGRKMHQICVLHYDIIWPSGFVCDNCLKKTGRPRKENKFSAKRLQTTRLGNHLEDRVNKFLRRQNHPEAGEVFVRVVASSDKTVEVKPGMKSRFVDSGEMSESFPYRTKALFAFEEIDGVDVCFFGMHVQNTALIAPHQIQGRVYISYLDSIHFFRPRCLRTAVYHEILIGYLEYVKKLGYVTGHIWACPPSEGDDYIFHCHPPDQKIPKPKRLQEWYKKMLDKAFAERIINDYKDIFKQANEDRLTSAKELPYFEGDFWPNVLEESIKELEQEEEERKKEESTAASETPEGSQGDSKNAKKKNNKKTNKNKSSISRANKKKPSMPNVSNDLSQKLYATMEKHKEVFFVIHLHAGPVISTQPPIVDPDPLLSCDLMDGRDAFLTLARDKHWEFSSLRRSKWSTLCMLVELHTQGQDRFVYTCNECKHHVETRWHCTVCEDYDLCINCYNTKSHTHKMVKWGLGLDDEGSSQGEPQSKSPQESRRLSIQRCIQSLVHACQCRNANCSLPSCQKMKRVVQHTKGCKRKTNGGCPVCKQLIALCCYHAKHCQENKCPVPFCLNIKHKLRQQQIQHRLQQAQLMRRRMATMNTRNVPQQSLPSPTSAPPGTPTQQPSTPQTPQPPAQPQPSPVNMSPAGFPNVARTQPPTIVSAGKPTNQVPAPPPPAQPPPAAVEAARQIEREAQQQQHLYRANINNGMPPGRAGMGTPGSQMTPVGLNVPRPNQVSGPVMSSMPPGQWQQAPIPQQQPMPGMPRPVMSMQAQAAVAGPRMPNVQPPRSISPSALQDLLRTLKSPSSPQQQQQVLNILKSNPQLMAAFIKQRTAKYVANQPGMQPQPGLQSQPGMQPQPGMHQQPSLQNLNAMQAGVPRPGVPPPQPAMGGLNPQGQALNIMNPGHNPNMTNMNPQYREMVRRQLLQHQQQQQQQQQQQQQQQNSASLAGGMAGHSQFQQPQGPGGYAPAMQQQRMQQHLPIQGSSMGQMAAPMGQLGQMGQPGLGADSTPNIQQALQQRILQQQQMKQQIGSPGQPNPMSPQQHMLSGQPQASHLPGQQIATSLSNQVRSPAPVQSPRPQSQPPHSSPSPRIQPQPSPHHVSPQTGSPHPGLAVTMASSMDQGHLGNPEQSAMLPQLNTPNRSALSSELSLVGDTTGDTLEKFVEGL
UniProt Q9JHD1: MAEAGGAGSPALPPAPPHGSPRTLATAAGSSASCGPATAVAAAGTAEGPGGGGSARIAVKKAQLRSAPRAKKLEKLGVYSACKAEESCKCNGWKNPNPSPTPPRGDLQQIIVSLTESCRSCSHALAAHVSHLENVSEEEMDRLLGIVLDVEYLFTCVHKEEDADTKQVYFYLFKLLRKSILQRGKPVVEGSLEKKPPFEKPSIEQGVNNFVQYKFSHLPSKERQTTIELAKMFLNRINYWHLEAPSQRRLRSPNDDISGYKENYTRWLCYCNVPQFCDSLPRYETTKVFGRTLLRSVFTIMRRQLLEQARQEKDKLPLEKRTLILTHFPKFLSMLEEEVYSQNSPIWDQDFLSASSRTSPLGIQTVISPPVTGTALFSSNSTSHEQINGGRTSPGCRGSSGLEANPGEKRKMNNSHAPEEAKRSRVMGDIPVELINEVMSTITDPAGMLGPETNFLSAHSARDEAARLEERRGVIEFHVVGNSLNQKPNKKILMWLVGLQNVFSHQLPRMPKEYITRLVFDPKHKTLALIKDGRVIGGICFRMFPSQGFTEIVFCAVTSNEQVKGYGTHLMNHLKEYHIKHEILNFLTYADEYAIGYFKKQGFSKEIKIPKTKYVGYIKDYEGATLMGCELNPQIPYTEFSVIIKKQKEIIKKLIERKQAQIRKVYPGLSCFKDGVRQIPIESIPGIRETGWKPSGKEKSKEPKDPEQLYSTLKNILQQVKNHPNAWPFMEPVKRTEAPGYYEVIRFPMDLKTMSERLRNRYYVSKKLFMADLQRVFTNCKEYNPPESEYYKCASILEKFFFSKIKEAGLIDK
UniProt Q9WTL8: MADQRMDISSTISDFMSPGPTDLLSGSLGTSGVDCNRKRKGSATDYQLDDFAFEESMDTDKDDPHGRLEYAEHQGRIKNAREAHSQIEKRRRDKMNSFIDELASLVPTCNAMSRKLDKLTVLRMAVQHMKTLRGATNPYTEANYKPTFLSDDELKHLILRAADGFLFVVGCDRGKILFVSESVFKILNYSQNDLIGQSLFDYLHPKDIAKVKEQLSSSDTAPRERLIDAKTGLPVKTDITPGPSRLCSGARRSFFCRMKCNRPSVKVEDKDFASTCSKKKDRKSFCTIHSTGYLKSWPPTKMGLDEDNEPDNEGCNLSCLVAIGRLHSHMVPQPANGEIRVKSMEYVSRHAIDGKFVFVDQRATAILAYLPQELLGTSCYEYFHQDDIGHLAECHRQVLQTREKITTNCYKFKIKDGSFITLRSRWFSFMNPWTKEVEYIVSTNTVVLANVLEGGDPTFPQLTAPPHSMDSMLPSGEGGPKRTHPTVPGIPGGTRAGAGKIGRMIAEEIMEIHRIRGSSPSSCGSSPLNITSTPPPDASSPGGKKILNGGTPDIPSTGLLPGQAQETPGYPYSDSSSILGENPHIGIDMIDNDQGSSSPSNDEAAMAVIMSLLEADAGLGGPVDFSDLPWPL
myc-YFP-CREB_(DIEDML) (Q01147-1, form named): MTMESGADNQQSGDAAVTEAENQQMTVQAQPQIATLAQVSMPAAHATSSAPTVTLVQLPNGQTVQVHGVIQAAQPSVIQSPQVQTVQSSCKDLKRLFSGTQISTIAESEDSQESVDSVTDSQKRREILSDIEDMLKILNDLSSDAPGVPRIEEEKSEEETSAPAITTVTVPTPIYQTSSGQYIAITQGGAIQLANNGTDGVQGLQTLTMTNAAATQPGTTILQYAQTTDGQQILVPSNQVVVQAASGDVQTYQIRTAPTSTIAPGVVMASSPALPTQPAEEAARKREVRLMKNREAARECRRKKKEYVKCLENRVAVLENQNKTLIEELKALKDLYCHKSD

Results are given in words; binding and its absence hold for the method and conditions named. Binding seen in cells or lysates may run through a third protein. Some results given as binding are weak or reduced against the parent protein; the word gives no strength. For part of these data: Where a sequence is shown, tags or fusion partners need not be part of it.

The target of one experiment is T1, myc-HDAC3 (UniProt O88895).
T1 sequence: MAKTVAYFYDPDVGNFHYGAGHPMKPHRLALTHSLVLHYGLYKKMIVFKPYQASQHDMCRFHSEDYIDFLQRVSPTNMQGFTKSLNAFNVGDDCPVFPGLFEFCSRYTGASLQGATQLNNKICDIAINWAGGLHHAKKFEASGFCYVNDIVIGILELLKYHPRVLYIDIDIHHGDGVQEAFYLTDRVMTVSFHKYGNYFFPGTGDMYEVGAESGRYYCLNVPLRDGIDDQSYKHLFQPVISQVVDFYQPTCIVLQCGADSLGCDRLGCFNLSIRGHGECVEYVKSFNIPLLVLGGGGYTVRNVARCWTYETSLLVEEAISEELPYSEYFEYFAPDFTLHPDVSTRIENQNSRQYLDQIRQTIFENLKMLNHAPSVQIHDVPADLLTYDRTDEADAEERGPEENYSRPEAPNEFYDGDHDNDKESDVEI
The experiment is described as follows: co-IP; COS-1 cells transfected with pEYFP-CLOCK or pEYFP-BMAL1 and pmyc-HDAC3; anti-myc precipitates, Western blot with anti-GFP.

Experiment [1] addresses CREB binding protein (CBP), expressed from pcDNA3CBP (UniProt P45481). The experiment is described as follows: co-IP; NIH3T3 cells transfected with pcDNA3CBP and a myc-tagged protein; IP with anti-CBP antibody or anti-rabbit IgG, Western blot with anti-myc or anti-CBP.
Experiment [2] has the same target. Nature of the experiment: co-IP; COS-1 cells transfected with pcDNA3CBP and one myc- or HA-tagged protein; IP with anti-CBP antibody or anti-rabbit IgG, Western blot with anti-myc, anti-HA or anti-CBP.
The next experiment concerns the target HA-pCAF (UniProt Q9JHD1). The experiment is described as follows: co-IP; COS-1 cells transfected with pmyc-CLOCK or pmyc-BMAL1 and pHA-pCAF; IP with anti-HA antibody, Western blot with anti-myc.
For experiment [3], the target named is endogenous CBP of NIH3T3 cells (mouse (endogenous in NIH3T3)) (UniProt P45481). Nature of the experiment: co-IP; NIH3T3 cells transfected with a myc-tagged protein only (endogenous CBP); IP with anti-CBP antibody or anti-rabbit IgG, Western blot with anti-myc.
A further experiment addresses HA-BMAL1 (UniProt Q9WTL8). Nature of the experiment: co-IP; NIH3T3 cells transfected with pHA-BMAL1 and pmyc-CLOCK; IP with anti-HA antibody, Western blot with anti-HA or anti-myc.

For YFP-BMAL1 (from UniProt Q9WTL8 1-632), the binding entry with myc-HDAC3 is recorded as “no binding”.
myc-BMAL1 (from UniProt Q9WTL8 1-632): the binding result (in experiment [1]; in experiment [2]; in the experiment with HA-pCAF; in experiment [3]) was “no binding” throughout.
On to “myc-YFP-CREB_(DIEDML) (from UniProt Q01147-1 1-341)”, for which the binding entry in experiment [1], in experiment [2] and in experiment [3] was “binds” throughout.

B1: myc-CLOCK (protein, UniProt O08785 1-855)
chain: MVFTVSCSKMSSIVDRDDSSIFDGLVEEDDKDKAKRVSRNKSEKKRRDQFNVLIKELGSMLPGNARKMDKSTVLQKSIDFLRKHKETTAQSDASEIRQDWKPTFLSNEEFTQLMLEALDGFFLAIMTDGSIIYVSESVTSLLEHLPSDLVDQSIFNFIPEGEHSEVYKILSTHLLESDSLTPEYLKSKNQLEFCCHMLRGTIDPKEPSTYEYVRFIGNFKSLTSVSTSTHNGFEGTIQRTHRPSYEDRVCFVATVRLATPQFIKEMCTVEEPNEEFTSRHSLEWKFLFLDHRAPPIIGYLPFEVLGTSGYDYYHVDDLENLAKCHEHLMQYGKGKSCYYRFLTKGQQWIWLQTHYYITYHQWNSRPEFIVCTHTVVSYAEVRAERRRELGIEESLPETAADKSQDSGSDNRINTVSLKEALERFDHSPTPSASSRSSRKSSHTAVSDPSSTPTKIPTDTSTPPRQHLPAHEKMTQRRSSFSSQSINSQSVGPSLTQPAMSQAANLPIPQGMSQFQFSAQLGAMQHLKDQLEQRTRMIEANIHRQQEELRKIQEQLQMVHGQGLQMFLQQSNPGLNFGSVQLSSGNSNIQQLTPVNMQGQVVPANQVQSGHISTGQHMIQQQTLQSTSTQQSQQSVMSGHSQQTSLPSQTPSTLTAPLYNTMVISQPAAGSMVQIPSSMPQNSTQSATVTTFTQDRQIRFSQGQQLVTKLVTAPVACGAVMVPSTMLMGQVVTAYPTFATQQQQAQTLSVTQQQQQQQQQPPQQQQQQQQSSQEQQLPSVQQPAQAQLGQPPQQFLQTSRLLHGNPSTQLILSAAFPLQQSTFPPSHHQQHQPQQQQQLPRHRTDSLTDPSKVQPQ
For B1, the binding result is on record as “binds” with HA-BMAL1, “binds” in the experiment with HA-pCAF and “no binding” in experiment [3].

B2: YFP-CLOCK (protein, UniProt O08785 1-855)
chain: MVFTVSCSKMSSIVDRDDSSIFDGLVEEDDKDKAKRVSRNKSEKKRRDQFNVLIKELGSMLPGNARKMDKSTVLQKSIDFLRKHKETTAQSDASEIRQDWKPTFLSNEEFTQLMLEALDGFFLAIMTDGSIIYVSESVTSLLEHLPSDLVDQSIFNFIPEGEHSEVYKILSTHLLESDSLTPEYLKSKNQLEFCCHMLRGTIDPKEPSTYEYVRFIGNFKSLTSVSTSTHNGFEGTIQRTHRPSYEDRVCFVATVRLATPQFIKEMCTVEEPNEEFTSRHSLEWKFLFLDHRAPPIIGYLPFEVLGTSGYDYYHVDDLENLAKCHEHLMQYGKGKSCYYRFLTKGQQWIWLQTHYYITYHQWNSRPEFIVCTHTVVSYAEVRAERRRELGIEESLPETAADKSQDSGSDNRINTVSLKEALERFDHSPTPSASSRSSRKSSHTAVSDPSSTPTKIPTDTSTPPRQHLPAHEKMTQRRSSFSSQSINSQSVGPSLTQPAMSQAANLPIPQGMSQFQFSAQLGAMQHLKDQLEQRTRMIEANIHRQQEELRKIQEQLQMVHGQGLQMFLQQSNPGLNFGSVQLSSGNSNIQQLTPVNMQGQVVPANQVQSGHISTGQHMIQQQTLQSTSTQQSQQSVMSGHSQQTSLPSQTPSTLTAPLYNTMVISQPAAGSMVQIPSSMPQNSTQSATVTTFTQDRQIRFSQGQQLVTKLVTAPVACGAVMVPSTMLMGQVVTAYPTFATQQQQAQTLSVTQQQQQQQQQPPQQQQQQQQSSQEQQLPSVQQPAQAQLGQPPQQFLQTSRLLHGNPSTQLILSAAFPLQQSTFPPSHHQQHQPQQQQQLPRHRTDSLTDPSKVQPQ
For the molecule B2, in the experiment with myc-HDAC3, the binding result is “binds”.
